From patent US9717725B2, “Use of opioid antagonists” (THE UNIVERSITY OF CHICAGO, priority 2005, dated 2017)

System: Human Microvascular Endothelial Cells (HMVEC)
Conditions: for endothelial cell migration (number of cells migrated per 10 high power fields): substance alone, 0.001 to 10.0 μM, 4 hours at 37° C.

| Compound | endothelial cell migration (number of cells migrated per 10 high power fields) | inhibition of DAMGO-induced endothelial cell migration (DAMGO 1 μM) |
| --- | --- | --- |
| CN1CC[C@]23c4c5ccc(O[C@@H]6O[C@H](C(=O)O)[C@@H](O)[C@H](O)[C@H]6O)c4O[C@H]2[C@@H](O)C=C[C@H]3[C@H]1C5 [M3G, morphine 3-glucuronide] | exerts no angiogenic activity | – |
| C[C@@H](NC(=O)[C@@H](N)Cc1ccc(O)cc1)C(=O)NCC(=O)N(C)[C@@H](Cc1ccccc1)C(=O)NCCO [DAMGO, [D-Ala^2, N-McPhe^4, Gly^5-ol]-enkephalin] | dose-dependent increase in migration of endothelial cells | – |
| C[N@+]1(CC2CC2)CC[C@]23c4c5ccc(O)c4O[C@H]2C(=O)CC[C@@]3(O)[C@H]1C5 [methylnaltrexone, N-methylnaltrexone] | – | decreased migration in a concentration-dependent manner |
| CN1CC[C@]23c4c5ccc(O)c4O[C@H]2[C@@H](O[C@@H]2O[C@H](C(=O)O)[C@@H](O)[C@H](O)[C@H]2O)C=C[C@H]3[C@H]1C5 [M6G, morphine 6-glucuronide] | exhibited a concentration dependent effect on angiogenesis | – |
